According to PubChem BioAssay AID2112 (National Center for Advancing Translational Sciences (NCATS), 2009):
Screen size: about 240,000 compounds; about 15 (0.006%) were called active. Inconclusive means that the source gave no clear call. Such entries were picked first, then a sample of the others. Calls follow the shape of the dose curve; as a rule, active = well fitted inhibition curve with a large enough effect; inconclusive = small, poorly fitted or top-dose-only effect, or effect the other way, or another doubt; inactive = no such curve, though single readings can be large or run the other way. No potency is given beside an inconclusive call; the fits are too rough.

Target: Lysosomal alpha-glucosidase (Homo sapiens) (UniProt P10253)
Experiment: qHTS Assay for Inhibitors and Activators of Human alpha-Glucosidase From Spleen Homogenate;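 as to activity change, negative = inhibition: 0% = enzyme with vehicle and -100% = no enzyme basal signal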
Details: 4-MU-alpha-glucoside fluorescence; series mostly up to 79.9 µM
Outline: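 Compounds were titrated against alpha-glucosidase in spleen homogenate at pH 5.0, with 1 mM 4-methylumbelliferyl substrate for 40 min at 37 C. Reactions were quenched with pH 10 NaOH/glycine and fluorescence measured.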
Potency is read from the fitted curve at half-maximal effect; tags tell the direction and shape of the fitted curve.

Row | Structure (SMILES) | Potency | activity change, negative = inhibition
1 | COc1cc(OC)cc(C(=O)NC(=S)Nc2cc3oc4ccccc4c3cc2OC)c1 | inconclusive [inhibitor, full curve, poor fit] | 
2 | CCCCC/C=C\C/C=C\C/C=C\C/C=C\CCCC(=O)Nc1ccc(O)cc1C | inactive | 
3 | COc1cc(/C=C(\C#N)c2[nH]nc(N)c2C#N)cc(OC)c1O | inconclusive [inhibitor, partial curve] | 
4 | Cc1ncc(/C=C2\C(=O)Nc3ccccc32)[nH]1 | inconclusive [inhibitor, single point] | 
5 | N=c1oc2cc(O)ccc2cc1C(=O)Nc1nc2ccccc2s1 | inconclusive [activator, partial curve] | 
6 | Cc1nn(-c2ccccc2)c(C)c1/C=N/N1CCN(c2ccccc2)CC1 | inactive | 
7 | O=c1cc2c(=O)oc3cc(O)c(O)oc3c2c(O)c1O | inactive | 
8 | COc1ccc(OC)c(/C=N/NC(=O)CCc2c(C)n[nH]c2C)c1 | inconclusive [activator, single point] | 
9 | Cc1cc(C)[n+](-c2ccc(F)cc2)c2[nH]c(=O)[nH]c(=O)c12 | inconclusive [activator, partial curve] | 
10 | CSc1nnc(-c2cc3c(s2)-c2ccccc2CC3)o1 | inconclusive [activator, partial curve] | 
11 | Cc1cc(-n2c(C)cc(C(=O)COc3ccc4ccc(=O)oc4c3)c2C)no1 | inconclusive [activator, single point] | 
12 | C[C@H](CC[C@@H]1OC1(C)C)C1CC[C@H]2[C@@H]3CC=C4C[C@@H](O)CC[C@]4(C)[C@H]3CC[C@]12C (some centres not stated) | inactive | 
13 | Cc1ccccc1N=C1NC(=O)CS1 | inactive | 
14 | CC(C)Cn1c(SCC(=O)N2CCCCC2)nc2ccccc2c1=O | inconclusive [inhibitor, partial curve] | 
15 | CC1OC(Oc2ccc3ccc(=O)oc3c2-c2c(O)ccc3cc(Oc4ccc5ccc(=O)oc5c4)c(=O)oc23)C(O)C(O)C1O (configuration not stated) | inconclusive [activator, single point] | 
16 | O=C/C(=C\Nc1ccc(Cl)cn1)c1nc2ccccc2o1 | inactive | 
17 | Cc1ccc(C=C2C(=O)c3ccccc3C2=O)o1 | inactive | 
18 | CCCc1cc(=O)oc2c(CN3CCCC3)c(O)c(Cl)cc12 | inconclusive [activator, partial curve] | 
19 | COC(=O)C1=C(C)N(c2ccccc2)/C(=C/c2cccs2)C1=O | inconclusive [inhibitor, full curve, poor fit] | 
20 | Cc1cc(C)n2c(SCC(=O)N3CCN(S(=O)(=O)c4ccc(Cl)cc4)CC3)nnc2n1 | inconclusive [inhibitor, full curve, poor fit] | 
21 | CC1=CC(c2ccccc2)n2nc(N3C(=O)CCC3=O)nc2N1 (configuration not stated) | inconclusive [activator, single point] | 
22 | COc1ccccc1[C@H]1C(c2ccccc2)=NN(c2ccccc2)[C@@H]1CO | inconclusive [activator, single point] | 
23 | CCN(CC)Cc1c(O)c(Cl)cc2c(C)c(C)c(=O)oc12 | inconclusive [activator, partial curve] | 

Row | Structure (SMILES) | Potency | activity change, negative = inhibition
24 | O=c1c2ccccc2[se]n1-c1ccccc1 | inactive | 
25 | Cc1oc2cc(O)ccc2c(=O)c1Oc1ccc2ccccc2c1 | inconclusive [activator, single point] | 
26 | Cc1cc2c(C)cc(=O)oc2c2c1NCCC2 | inconclusive [activator, partial curve] | 
27 | O=S(=O)(c1ccc(Cl)cc1)N1CCN(c2nc(-c3cccs3)nc3ccccc23)CC1 | inactive | 
28 | CN(Cc1cccs1)c1nc(-c2cccnc2)nc2ccccc12 | inactive | 
29 | C=CCNc1oc(/C=C/c2ccccc2)nc1C#N | inconclusive [activator, single point] | 
30 | CCOC(=O)c1cc2c(=O)n3ccccc3nc2n(Cc2ccco2)c1=NC(=O)c1ccccc1OC | inconclusive [activator, single point] | 
31 | Cc1c(C)c2cc(Cl)c(O)c(CN3CCN(C)CC3)c2oc1=O | inconclusive [activator, single point] | 
32 | CCc1ccc(C2=NN(c3ccc(S(N)(=O)=O)cc3)C(c3ccc(F)cc3)C2)cc1 (configuration not stated) | inconclusive [activator, partial curve] | 
33 | CCC/C=C(\CCC)C(NS(=O)(=O)c1cccc2cccnc12)c1ccc(C(=O)OC)cc1 (configuration not stated) | inconclusive [inhibitor, partial curve, poor fit] | 
34 | COc1cccc([C@@H]2Oc3ccc(OC)cc3C(=O)[C@H]2OC(=O)NC2CCCC2)c1 | inactive | 
35 | CCc1c(C)c2ccc(O)c(CN(C)C)c2oc1=O | inconclusive [activator, partial curve] | 
36 | CCCc1cc(=O)oc2c(CN3CCCC3)c(O)ccc12 | inconclusive [activator, partial curve] | 
37 | c1ccc2c(c1)ncn2Cc1nnc2sc(-c3ccncc3)nn12 | inactive | 
38 | CCCNC(=O)COC(=O)c1cc2c(=O)n3ccccc3nc2s1 | inconclusive [activator, partial curve] | 
39 | Cc1ccc(C(=O)c2coc3c2C(=O)C(=O)c2ccccc2-3)cc1 | inactive | 
40 | O=C(N/N=C/c1ccco1)C1CC1c1ccccc1 (configuration not stated) | inconclusive [inhibitor, full curve, poor fit] | 
41 | C=C1CCN(C(Cc2ccccc2)C(=O)NCc2ccc(Cl)cc2)S(=O)(=O)c2ccccc21 (configuration not stated) | inactive | 
42 | O=C(N/N=C/C1CC=CCC1)c1cc(Br)ccc1O (configuration not stated) | inactive | 
43 | Cc1ccc2nc3c(cc(C#N)c(=O)n3-c3nccs3)c(=O)n2c1 | inconclusive [activator, full curve, poor fit] | 
44 | OC[C@@H]1[C@@H](c2ccccc2)C(c2ccc(F)cc2)=NN1c1ccccc1 | inconclusive [activator, single point] | 
45 | CC12CN3CC(C)(CN(C1)C3c1c[nH]c3ccccc13)C2=O (configuration not stated) | inactive | 
46 | O=C(CCCO)CCCCCCCCC[C@H]1N[C@H](CO)[C@@H](O)[C@@H]1O | inconclusive [inhibitor, single point] | 

Row | Structure (SMILES) | Potency | activity change, negative = inhibition
47 | Cc1cc(-n2c(=O)c(C#N)cc3c(=O)n4cccc(C)c4nc32)no1 | inconclusive [activator, full curve, poor fit] | 
48 | COc1ccc(S(=O)(=O)Nc2c(C(=O)O)[nH]c3ccccc23)c(OC)c1 | inactive | 
49 | CC(=O)O[C@@H]1CC2C(C)(C)C(=O)C=C[C@]2(C)C2CC[C@]3(C)C(=CC[C@H]3C3CO[C@@H](C(C)(C)O)[C@H](O)C3)[C@@]21C (some centres not stated) | inactive | 
50 | COC(=O)C1=C(C(=O)OC)[C@@H]2N(Cc3ccccc3)c3ccccc3[C@@]23C[C@@H](C(=O)OC)N(S(=O)(=O)c2ccc(Br)cc2)C3=N1 |  | inactive: -2.54% [at 17.4 µM]
51 | O=C(O)c1cc(=O)c2ccccc2[nH]1 | inconclusive [activator, full curve, poor fit] | 
52 | CCOc1ccc(/C(O)=C2/C(=O)C(=O)N(CCOCCO)C2c2ccc(F)cc2)cc1 (configuration not stated) | inconclusive [inhibitor, full curve, poor fit] | 
53 | COc1cccc(N=c2oc3cc(O)ccc3cc2C(=O)NCC2CCCO2)c1 (configuration not stated) | inconclusive [activator, single point] | 
54 | Cc1nnc(SCC(=O)Nc2ccc3c(c2)COC3=O)n1-c1ccccc1 | inconclusive [inhibitor, partial curve] | 
55 | O=C1NN(c2ccccc2)C(=O)/C1=C\c1ccc(-c2cc([N+](=O)[O-])ccc2O)o1 | inconclusive [inhibitor, single point] | 
56 | O=c1c2ccccc2[nH]c2ccccc12 | inconclusive [activator, single point] | 
57 | COC(=O)c1ccc(CSc2cc(C)c3cccc(C)c3n2)o1 | inconclusive [inhibitor, single point] | 
58 | Cc1noc(C)c1-c1ccc2ncnc(NCc3cccnc3)c2c1 | inactive | 
59 | CCCN(CCC)CC(=O)NCC1(c2ccccc2)CCOCC1 | inconclusive [inhibitor, full curve, poor fit] | 
60 | CN(C)c1oc(/C=C/c2ccccc2)nc1C#N | inconclusive [activator, partial curve] | 
61 | COCCNc1oc(/C=C/c2ccccc2)nc1C#N | inconclusive [activator, partial curve] | 
62 | CCc1c(C)c2cc(Cl)c(O)c(CN(C)C)c2oc1=O | inconclusive [activator, partial curve] | 
63 | Cc1c2c(nc3ccccc13)-c1cccc(=O)n1C2 | inconclusive [activator, partial curve] | 
64 | CCOC(=O)c1cc2c(=O)n3cccc(C)c3nc2n(Cc2ccco2)c1=NC(=O)c1ccccc1 | inconclusive [activator, partial curve, poor fit] | 
65 | CCOc1ccc(CC(=O)Nc2ccc(S(=O)(=O)Nc3cc(C)on3)cc2)cc1OCC | inconclusive [inhibitor, single point] | 
66 | N#Cc1c(-c2ccccc2Cl)c2c([nH]c1=O)-c1ccccc1OC2 | inconclusive [activator, partial curve] | 
67 | Oc1ccccc1C=Nc1ccccc1-c1nc2ccccc2[nH]1 | inconclusive [activator, single point] | 
